The whole screen tested about 55,000 compounds, of which about 530 (0.96%) were called active. Inconclusive results, whose numbers are uncertain, are shown with a selection of clear calls. Calls follow the shape of the dose curve; as a rule, active = well fitted cell-killing curve with a large enough effect; inconclusive = small, poorly fitted or top-dose-only effect; inactive = no such curve, though single readings can be large or run the other way. Potencies beside an inconclusive call are fits to weak or partial responses and may not hold up.
Assay: qHTS Screen for Compounds that Selectively Target Cancer Cells with p53 Mutations: Cytotoxicity of p53 Null Cells at the Nonpermissive Temperature; also: nearly all actives have a fitted effect of over 50% in size;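 as to activity, negative = cell killing: 0% = DMSO only and -100% = full killing by 100 µM tamoxifen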
Details: H1299 p53-null (neo) cells, 39C, ATPlite viability, 24 h; activity, negative = cell killing: at 46.1 µM (top of the series)
Description: NIH Chemical Genomics Center [NCGC] NIH Molecular Libraries Screening Centers Network [MLSCN] MLSCN Grant: 1 X01 MH079844-01 Assay Submitter (PI): Dr. SUN, YI, University of Michigan NCGC Assay Overview: Synthetic Lethal Screen for Compounds to Kill Cancer Cells with p53 Mutation. Tumor suppressor gene p53 serves as a major cellular barrier against tumorigenesis. […] The goal of this screening is to identify small molecule probes that selectively kill cancer cells with mutations in p53. This screening was carried out using two lines of H1299 lung cancer cells. The H1299-p53 A138V line express a temperature sensitive p53 mutant (p53ts) in which the mutant p53 protein (A138V) is in the mutant confirmation when grown at 39C (the nonpermissive temperature) and in the wild type conformation when grown at 32C (the permissive temperature). A H1299-neo line (p53 null) grown at both 39C and 32C were used as counter-screens to filter out false positive associated with temperature shifting. The small molecular compounds that selectively target mutant p53-containing cancer cells were selected as candidate probes for further study. A cytotoxicity assay based on the measurement of ATP contents in cells was used in this screen. Concentration-responses of all the compounds in the library collection were determined in qHTS using the cell lines and temperature conditions as above.
NCGC Assay Protocol Summary: Both the H1299-p53A138V and H1299-neo cell lines were provided by Dr.Yi Sun, a PI at the University Michigan. The cells were maintained and cultured at 37C. The resuspended frozen cells were used to plate the cells in the 1536-well assay plates at a density of 600 cells per well in 5 ul medium. The assay plates with the cells were incubated at 37C for 16 to 30 hours before the experiments. The library compounds in DMSO solution were added to the cells in assay plates and incubated 24 hours at 39C (for mutant p53 conformation) or 32C (for normal p53 conformation as control). An ATP_lite assay kit (PerkinElmer) was used to determine the cell viability. Tomaxifen (100uM) was used as the positive control for cell killing. Data were normalized to the controls for basal activity (DMSO only) and 100% killing (100uM tamoxifen). AC50 values were determined from concentration-response data modeled with the standard Hill equation. P53 assay protocol: 1. Reagent; 5 uL H1299-p53A138V or H1299-neo cell cells/well 2. Time; overnight; 37C incubation 3. Compounds; 23 nL; 5.9 nM to 46 uM 4. Controls; 23 nL; Tamoxifen 100 uM 5. Time; 24 hr; 39C incubation 6. Reagent; 3 uL; ATP_Lite reagent 7. Time; 20 min; Room Temperature 8. Detection; Luminescence; Viewlux plate reader Keywords: p53, synthetic lethal, cancer, cell viability, cytotoxicity, H1299 cell line, luminescence, MLSMR, MLSCN, NIH Roadmap, qHTS, NCGC
Potency is read from the fitted curve at half-maximal effect; tags tell the direction and shape of the fitted curve.

SMILES	Potency	activity, negative = cell killing
CC(=O)c1cccc(NC(=O)CCCSc2nc(-c3ccco3)cc(C(F)(F)F)n2)c1	inconclusive: 0.0282 µM [cytotoxic, full curve, poor fit]	–
O=C(NCc1ccccc1Cl)c1ccc(NC(=O)N2CCSc3ccccc32)cc1	–	inactive: -4.19%
O=C(N/N=C/c1cccs1)c1ccc(NC(=O)c2ccccc2Cl)cc1	–	inactive: 35.8%
COc1ccc(OC)c(NC(=O)c2c(NCc3ccc(N(C)C)cc3)sc3c2CCCC3)c1	–	inactive: 0.0804%
CCC(=O)Nc1cccc(OCc2cc(=O)n3cc(C)ccc3n2)c1	inconclusive: 0.01 µM [cytotoxic, full curve, poor fit]	–
CC1=C(C(=O)Nc2ccccc2)C(c2ccccn2)n2nc(SCc3ccccc3Cl)nc2N1 (centres undefined)	–	inconclusive: -33% [cytotoxic]
CN(Cc1ccco1)S(=O)(=O)c1nnc(NC(=O)c2ccccc2)s1	inconclusive: 3.55 µM [cytotoxic, single point]	–
O=C(Cn1c(SCC(=O)Nc2ccc(F)cc2)nc2ccccc21)NCc1ccc(Cl)cc1	inconclusive: 10 µM [cytotoxic, partial curve]	–
CC(C)Sc1nc2sc3c(c2c(=O)n1-c1ccccc1)CCCC3	–	inactive: 12.8%
Cc1ccc(C(C)C)c(OCCSc2nc3ccccc3n2CC(O)CO)c1 (centres undefined)	inconclusive: 12.6 µM [cytotoxic, partial curve]	–
CCN(CC)S(=O)(=O)c1ccc2nc(NC(=O)c3cncc(Br)c3)sc2c1	inconclusive: 0.112 µM [cytotoxic, full curve, poor fit]	–
COc1ccc(C2N=C(N)Nc3nc4ccccc4n32)cc1 (centres undefined)	–	inactive: 28.8%
COc1ccc(CCNc2ncnc3c2cnn3-c2cc(Cl)ccc2C)cc1	inconclusive: 35.5 µM [cytotoxic, single point]	–
CC(C)(C)C1CCc2oc3ccc(NS(=O)(=O)c4ccc(C(=O)O)cc4)cc3c2C1 (centres undefined)	inconclusive: 31.6 µM [cytotoxic, single point]	–
Cc1cc(C)cc(NC(=O)Cn2cc(C(=O)C3CCCCC3)c3ccccc32)c1	inconclusive: 12.6 µM [cytotoxic, single point]	–
Cc1nn(CC(=O)N2CCN(c3ccc(Cl)cc3)CC2)c(=O)c2cccn12	inconclusive: 11.2 µM [cytotoxic, partial curve]	–
COc1ccc(-c2nc(S(=O)(=O)c3ccc(Cl)cc3)c(NCc3ccccc3)o2)cc1	–	inactive: 8.37%
Cc1ccc(CCNc2ncnc3onc(-c4ccc(Cl)cc4)c23)cc1	inconclusive: 0.794 µM [cytotoxic, full curve, poor fit]	–
COc1ccc(NC(=O)CSc2nc3c(oc4ccccc43)c(=O)n2Cc2ccco2)cc1Cl	inconclusive: 31.6 µM [cytotoxic, single point]	–
COc1ccc(NC(=O)C2=C(C)Nc3ncnn3C2c2cccn2C)cc1 (centres undefined)	inconclusive: 0.01 µM [cytotoxic, full curve, poor fit]	–
COc1cc(S(=O)(=O)NCCc2c(C)[nH]c3ccccc23)c(C)cc1C	–	inactive: -13.5%
CC1=C(C(=O)OCC2CCCCC2)C(c2ccc(Cl)cc2)CC(=O)N1 (centres undefined)	inconclusive: 31.6 µM [cytotoxic, single point]	–
O=C1N(Cc2ccccc2Cl)c2ccccc2C1(O)c1c[nH]c2ccccc12 (centres undefined)	inconclusive: 0.0158 µM [cytotoxic, full curve, poor fit]	–

SMILES	Potency	activity, negative = cell killing
CCOC(=O)c1ccc(NC(=O)CSc2nc3cc4ccccc4cc3[nH]2)cc1	inconclusive: 1.58 µM [cytotoxic, partial curve, poor fit]	–
O=C(CCOc1ccccc1)N(Cc1cccnc1)c1nc2ccc(Cl)cc2s1	inconclusive: 0.447 µM [cytotoxic, partial curve, poor fit]	–
Cc1cccc2c1N(Cc1ccccc1OCCC(C)C)C(=O)C2=O	inconclusive: 31.6 µM [cytotoxic, single point]	–
Cc1ccc(/C=C/c2onc(C)c2S(=O)(=O)N2CCC(C(=O)Nc3ccccc3C(F)(F)F)CC2)cc1	inconclusive: 20 µM [cytotoxic, single point]	–
CC(=O)Nc1nonc1-c1nnc(SCc2ccccc2F)n1C	inconclusive: 0.004 µM [cytotoxic, full curve]	–
O=C(NCCc1ccccc1Cl)C1CCN(c2nc3ccccc3nc2C(F)(F)F)CC1	–	inactive: 1.74%
CCCCN(CC)C(=O)c1nn(C)c2c1CSc1ccccc1-2	inconclusive: 15.8 µM [cytotoxic, single point]	–
Cc1ccc(C)c(CN2C(=O)C(O)(c3c(C)[nH]c4ccccc34)c3ccccc32)c1 (centres undefined)	–	inactive: -8.31%
Cc1nc2ccc(S(=O)(=O)CCC(=O)Nc3ccc(Cl)cc3)cc2s1	–	inactive: -8.43%
Cc1nn(-c2ccc(N3CCCCC3)nn2)c(C)c1CCC(=O)Nc1ccc(F)cc1F	inconclusive: 0.794 µM [cytotoxic, full curve, poor fit]	–
COc1ccc(CCNC(=O)CCCCn2c(=O)c3ccccc3n(CC(=O)Nc3c(C)cccc3C)c2=O)cc1OC	inconclusive: 15.8 µM [cytotoxic, partial curve]	–
C#CCn1c(=NC(=O)c2ccc3c(c2)OCCO3)sc2cc(OC)c(OC)cc21	–	inactive: -14.7%
Cc1ccc(-n2ncc3c(NC(C)c4ccccc4)ncnc32)cc1 (centres undefined)	–	inactive: 4.02%
CCCC(=O)Nc1cc2nn(-c3ccccc3)nc2cc1C	inconclusive: 0.199 µM [cytotoxic, partial curve]	–
CCc1ccccc1NS(=O)(=O)c1ccc2nc(-c3ccccc3)[nH]c2c1	inconclusive: 20 µM [cytotoxic, partial curve, poor fit]	–
CC1=C(C(=O)OC2CCCC2)C(c2c(Cl)cccc2Cl)CC(=O)N1 (centres undefined)	–	inactive: 15.2%
CCC(C)NC(=O)c1c(C)oc2ncn(CC(C)C)c(=O)c12 (centres undefined)	inconclusive: 5.62 µM [cytotoxic, single point]	–
CCC(=O)N1CCc2cc(Br)cc(S(=O)(=O)CCC(=O)N3CCN(c4cccc(C)c4)C(C)C3)c21 (centres undefined)	–	inactive: -4.81%
CCOCCCNC(=O)c1ccc(-n2c(-c3ccccc3)cc3c2CCC(C)C3)cc1 (centres undefined)	–	inconclusive: -33.6% [cytotoxic]
CCCCn1cnc2cc(NCc3ccccc3Cl)ccc21	inconclusive: 20 µM [cytotoxic, single point]	–
Cc1ccc(NC(=O)c2ccccc2O)cc1	active: 10 µM	–
COc1ccc(Nc2oc(COc3ccc(OC)cc3)nc2C#N)cc1	inconclusive: 15.8 µM [cytotoxic, single point]	–
CCc1ccc2occ(CC(=O)Nc3c(C(=O)c4ccc(C)cc4)oc4ccccc34)c2c1	–	inactive: -11.3%

SMILES	Potency	activity, negative = cell killing
CCOc1ccc(NC(=O)Cn2c(=O)n(CCCCCC(=O)NCc3ccccc3)c(=O)c3sccc32)cc1	–	inactive: -19.9%
Cc1nn(C)cc1CN(C)C(=O)c1cc(-c2ccccc2)nc2ccc(Br)cc12	inconclusive: 31.6 µM [cytotoxic, single point]	–
CCOC(=O)C(C)Sc1ccc2nnc(CCNS(=O)(=O)c3ccc(C)cc3)n2n1 (centres undefined)	inconclusive: 31.6 µM [cytotoxic, single point]	–
CCc1cccc(C)c1NC(=O)Cn1nc(C)n2cccc2c1=O	active: 12.6 µM	–
Cc1ccc(CNCc2ccccc2Cl)s1	–	inconclusive: -32.5% [cytotoxic]
Cc1cc(Nc2cccc(Cl)c2)nc2ccc(NC(=O)c3cncc(Br)c3)cc12	active: 20 µM	–
O=c1c(=O)n(-c2ccc(F)c(F)c2)ccn1Cc1ccc(F)cc1Cl	inconclusive: 31.6 µM [cytotoxic, single point]	–
CCn1c(SCc2c(F)cccc2Cl)nc(=O)c2c(C(=O)OC)cc(C3CC3)nc21	inconclusive: 31.6 µM [cytotoxic, single point]	–
COc1ccc(C)c2sc(N3CCN(C(=O)c4cccc(F)c4)CC3)nc12	–	inactive: 8.07%
CCc1ccc(NC(=O)Nc2ccccc2OCc2cc(=O)n3ccccc3n2)cc1	active: 2 µM	–
CCOc1ccc(C(=O)NCC(c2ccc(Cl)cc2)N2CCCCC2)cc1 (centres undefined)	inconclusive: 0.005 µM [cytotoxic, full curve]	–
COc1ccc(-c2onc(C)c2C)cc1S(=O)(=O)Nc1cccc(C#N)c1	inconclusive: 17.8 µM [cytotoxic, partial curve]	–
CN(C)CCN(Cc1ccco1)C(=O)c1cc2c(s1)-c1ccccc1OC2	inconclusive: 10 µM [cytotoxic, partial curve]	–
COc1ccc(-c2cn3cccnc3n2)cc1NC(=O)Nc1cc(C)ccc1C	active: 15.8 µM	–
CCOC(=O)c1cc(C)n(CC2CCC(C(=O)Nc3cccc(Cl)c3)CC2)c1C (centres undefined)	–	inactive: 29.6%
CCc1cccc(NC(=O)Cn2c(=O)n(CCC(=O)NCc3ccccc3Cl)c(=O)c3sccc32)c1	inconclusive: 25.1 µM [cytotoxic, single point]	–
CCCc1ccc(S(=O)(=O)N2CCC(c3nnc(-c4cccc(C)c4)o3)CC2)cc1	–	inactive: 5.79%
CC(C)c1ccc(C2=CC(c3cccc(Cl)c3)n3c(nc4ccccc43)N2)cc1 (centres undefined)	inconclusive: 31.6 µM [cytotoxic, single point]	–
COc1ccc(OC)c(C2Nc3c(C)cc(C)cc3-c3cc(C)nn32)c1 (centres undefined)	inconclusive: 35.5 µM [cytotoxic, single point]	–
Cc1ccc(NS(=O)(=O)c2ccc3c(c2)CC(=O)N3)cc1Cl	–	inactive: -10.8%
CCOc1cc(C(=O)Nc2ccc3nc(Nc4cccc(Cl)c4)cc(C)c3c2)cc(OCC)c1OCC	–	inactive: -1.92%
O=C(Nc1nonc1-c1ccc(Cl)cc1)c1ccccc1F	inconclusive: 35.5 µM [cytotoxic, single point]	–
Cn1c(=O)n(-c2ccc3c(c2)OCO3)c2nc(-c3ccc(Cl)cc3)nc(C(N)=O)c21	–	inactive: -0.353%

From PubChem BioAssay AID904 (National Center for Advancing Translational Sciences (NCATS), 2007)
